Drawing on PubChem BioAssay AID1346428 (National Center for Advancing Translational Sciences (NCATS), 2018), this text covers activation for 24 compounds.

Out of some 48,000 compounds screened, about 1,200 (2.5%) were called active. Another 2% or so got no clear call; they are omitted.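 How the source made its calls: active means activation of at least 60% and not above a set upper limit (about 1 call in 100 departs from these limits); inconclusive means activation of 40% to 60%, or above that upper limit; inactive means activation under 40%.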 This is one part of the list.

For the test, the target named is Probable G-protein coupled receptor 32 (Homo sapiens) (UniProt O75388). Put plainly: qHTS for Agonists of Human Resolvin D1 Receptor DRV1. To be noted: CHO-K1 GPR32 beta-arrestin PathHunter luminescence, 90 min; at 76.9 µM; stronger effect = higher value; zero percent set by DMSO-only wells. In a few lines: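 Using DMSO wells as EC0, agonist-induced signal was taken as chemiluminescence from beta-Gal reconstituted upon beta-arrestin recruitment to GPR32 in CHO-K1 cells after 90 min compound treatment.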
Sequence of UniProt O75388 (O75388 whole entry, looked up): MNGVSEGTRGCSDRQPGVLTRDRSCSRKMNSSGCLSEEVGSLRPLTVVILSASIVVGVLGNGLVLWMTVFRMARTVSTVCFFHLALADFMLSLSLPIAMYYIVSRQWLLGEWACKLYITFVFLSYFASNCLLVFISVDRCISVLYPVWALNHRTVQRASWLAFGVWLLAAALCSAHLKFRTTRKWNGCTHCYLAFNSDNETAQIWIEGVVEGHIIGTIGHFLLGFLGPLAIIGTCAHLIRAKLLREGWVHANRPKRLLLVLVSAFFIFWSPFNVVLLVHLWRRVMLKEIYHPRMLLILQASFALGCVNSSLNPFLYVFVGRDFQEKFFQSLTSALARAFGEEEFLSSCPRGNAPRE
Turning to `CCCC12CN3CC(CCC)(CN(C1)C3c1c[nH]c3ccccc13)C2=O` (centres undefined), the activation is inactive: -15.8%.
Take `Cc1ccc(-c2nnc(SCC(=O)N3CCc4ccccc43)o2)cc1`: the activation is inactive: 1.09%.
As for `Cc1cc(C)cc(NC(=O)Cn2c(=O)oc3cc(S(=O)(=O)N4CCCC4)ccc32)c1`, the figure is inactive: -30%; as for `COc1cccc(CNC(=O)c2cnc(N3CCCC3)nc2C)c1`, inactive: 13.8%; as for `COc1ccc(S(=O)(=O)c2cn(C)c3cc(N4CCCC4)c(F)cc3c2=O)cc1`, inactive: -11.2%.
On to `O=S(=O)(c1ccc2ccccc2c1)n1nc(-c2ccco2)nc1NCc1cccc(Cl)c1`, for which the activation was inactive: -24.3%.
As for `Cc1ccc(CNC(=O)c2ccc3c(c2)N(Cc2ccccc2F)C(=O)c2ccccc2S3(=O)=O)cc1`, the figure is inactive: -13.7%; as for `COc1ccc(NC(=O)c2ccco2)cc1NC(=O)COc1ccc(C)cc1C`, inactive: -0.854%; as for `Cc1ccc(NC(=O)CSc2[nH]c(=O)ncc2C)cc1`, inactive: -7.05%.
As for `COc1cccc(Cn2cc(S(=O)(=O)c3ccc(C)cc3)c(=O)c3cc4c(cc32)OCO4)c1`, the activation was inactive: -11.5%.
Then `Cc1nc2ccccc2n1CCc1nc2c3ccccc3nc(SCC(=O)Nc3ccc(C(C)C)cc3)n2n1`, with inactive: -7.3%; and `O=C(Nc1nonc1-c1ccc(Br)cc1)c1ccco1`, with active: 71.1%.
Then `Cc1ccc(NC(=O)Cc2ccc(NC(=O)N3CCCCc4ccccc43)cc2)cc1`, with inactive: -21.7%; and `CCCc1ccc(NC(=O)C2CCN(c3cnccn3)CC2)cc1`, with inactive: 5.72%.
As for `Clc1ccc(CSc2nc3ncccc3[nH]2)cc1`, the figure is inactive: 14.4%.
`Cc1cc(Cl)ccc1NC(=O)CN1C(=O)C(=O)c2ccccc21`: the activation is inactive: -67.5%.
As for `CCN1CCN(C(c2ccccc2)c2c(O)cc(C)n(CCOC)c2=O)CC1` (centres undefined), the figure is inactive: -8.56%.
On to `CSc1cccc(NC(=O)Cn2nnc(C(=O)NCCc3ccccc3)c2N)c1`, for which the activation is inactive: -7.27%.
As to `COc1ccc(S(=O)(=O)Cc2ccc(C(=O)NC3CCCCC3)o2)cc1`, the activation was active: 89.3%.
In the case of `CCCCC(=O)Nc1ccc(C(=O)OCc2cc(=O)n3nc(C4CC4)sc3n2)cc1`, the activation is inactive: -3.27%.
As for `COC(=O)C1=C(c2ccccc2)c2ccccc2S(=O)(=O)N1CC(=O)Nc1ccccc1C(F)(F)F`, the activation was inactive: -23.9%.
Turning to `Cn1c(=O)n(CCc2ccccc2)c(=O)c2c1nc1n2CCN1c1ccc(Cl)cc1`, the activation was inactive: 8%.
On to `Cc1cccc(N2CCN(c3ccc(C(=O)O)cc3NC(=O)c3ccccc3F)CC2C)c1` (centres undefined), for which the activation is inactive: 8.48%.
Then `C=CCN1CCc2nc(N)sc2CC1`, with inactive: 4.61%.
